# Reference: PubChem BioAssay AID686971 (National Center for Advancing Translational Sciences (NCATS), 2013)
# The campaign covered roughly 360,000 compounds. About 7,500 (2.1%) were called active. Inconclusive means that the source gave no clear call. Such entries were picked first, then a sample of the others. Calls come from the whole dose curve; as a rule, active = well fitted cell-killing curve with a large enough effect; inconclusive = small, poorly fitted or top-dose-only effect, or effect the other way, or another doubt; inactive = no such curve, though single readings can be large or run the other way. Potencies of inconclusive entries are left out as doubtful fits.
# Test: qHTS for induction of synthetic lethality in tumor cells producing 2HG: qHTS for the HT-1080-IDH1KD cell line;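 for activity, negative = toxicity: 0% = DMSO wells and -100% = cell-free medium wells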
# Settings: HT-1080 IDH1 knockdown viability, ATP luminescence, 48 h; activity, negative = toxicity: at 46.1 µM (top of the series) unless noted
# Outline: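 IDH1KD HT-1080 cells, 750/well, RPMI + 5% FBS; compound pinned after 2 h settling; 48 h, 37 °C; CellTiter-Glo luminescence; % activity normalised to DMSO and no-cell wells; curves fitted, classed by r2 and efficacy.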
# Potency is the fitted concentration of half-maximal effect; tags give direction and shape of the fitted curve.
Structure (SMILES),Potency,"activity, negative = toxicity"
CN(C)CCSc1nc(-c2ccccc2)nc2c1COC(C)(C)C2,"inconclusive [cytotoxic, single point]",–
O=C(CNC1CCCCCC1)Nc1ccccc1N1CCCCC1,"inconclusive [cytotoxic, single point]",–
Cc1cccc(OCCn2cc(/C=N/NC(=O)c3ccncc3)c3ccccc32)c1,"inconclusive [cytotoxic, single point]",–
OC(c1ccc(F)cc1)c1ncc(-c2ccc(Oc3ccccc3)cc2)[nH]1 (configuration not stated),"inconclusive [cytotoxic, single point]",–
CN(C)CCNC(=O)c1ccc(-c2cn3c(-c4ccc(Oc5ccccc5)cc4)cnc3cn2)cc1,"inconclusive [cytotoxic, single point]",–
CCOC(=O)Cc1csc(NS(=O)(=O)c2ccc3c4c(cccc24)C(=O)N3CC)n1,"inconclusive [cytotoxic, single point]",–
CC(=O)C1=CCC(c2ccccc2Cl)N(S(=O)(=O)c2ccc(C)cc2)C1 (configuration not stated),"inconclusive [cytotoxic, single point]",–
Cc1ccccc1NC(=O)/C=C/c1ccc([N+](=O)[O-])s1,active: 3.66 µM,–
CCC(C)[C@H]1CN=C(N)N1CCc1cccc2ccccc12 (some centres not stated),–,inactive: -16.3%
Clc1ccc2c(SCC3CO3)c3ccccc3nc2c1 (configuration not stated),active: 18.4 µM,–
Cn1c(-c2cccc(Br)c2)cnc1NCc1ccccc1O,"inconclusive [cytotoxic, single point]",–
FC(F)(F)c1cccc(/C=N/NC(=S)NC2CCCCC2)c1,"inconclusive [cytotoxic, single point]",–
CCCOc1ccc(F)cc1-c1cc(C(=O)Nc2ccc(F)c(Cl)c2)[nH]n1,"inconclusive [cytotoxic, single point]",–
CCOC(=O)c1cccc(NC(=O)CCOc2ccccc2)c1,–,inconclusive: -13.1% [cytotoxic]
COc1ccc(-c2cc(C)no2)cc1S(=O)(=O)NCc1cccc(C)c1,"inconclusive [cytotoxic, single point]",–
C[C@@H]1CN([C@H](C)CO)C(=O)CCCn2cc(nn2)CO[C@H]1CN(C)S(=O)(=O)c1ccccc1,–,inactive: 2.9%
CSCCC(=O)N1CCC(n2nccc2NC(=O)CCCc2ccccc2)CC1,–,inactive: -10.4%
Cc1cccc(CN2CCN(c3ncccn3)CC2)c1,–,inactive: -6.05%
Nc1cc(Cl)ccc1Oc1ccc2ccccc2c1,"inconclusive [cytotoxic, single point]",–
Cc1cccc(NC(=O)CCc2ccc(N3C(N)=NC(N)=NC3(C)C)cc2)c1,active: 0.461 µM,–
Cc1ccc(CNC(=O)Cc2ccc(-c3ccccc3)cc2)cc1,active: 2.82 µM,–
COc1ccc(NC(=O)c2ccccc2SC)c(OC)c1,"inconclusive [rising, partial curve]",–
O=C(Cn1ncc2c([nH]c3ccccc32)c1=O)NCCc1ccccc1,–,inconclusive: -1.14% [cytotoxic]
CC(C)CCOc1cccc(OCC(=O)Nc2ccncc2)c1,"inconclusive [cytotoxic, partial curve]",–

Structure (SMILES),Potency,"activity, negative = toxicity"
Cc1ccc(NC(=O)CSc2nnc(-c3cccnc3)s2)cc1,–,inactive: 9.74%
CC(C)(C)NC(=O)C(c1cc2ccccc2o1)n1c(=O)c(-c2cc3ccccc3[nH]2)nc2ccccc21 (configuration not stated),"inconclusive [cytotoxic, single point]",–
O=C(Nc1cccc(-n2cccn2)c1)C1CCCN(Cc2cc3ccccc3[nH]2)C1 (configuration not stated),"inconclusive [cytotoxic, single point]",–
CCCc1cc(=O)[nH]c(SCC(=O)N2c3ccccc3NC(=O)C2(C)C)n1,–,inactive: -5.65%
CN(C)c1ccc(CN(C(=O)/C=C/c2ccccc2Cl)C2CCS(=O)(=O)C2)cc1 (configuration not stated),–,inactive: -11.1%
Cn1ncc(Br)c1NC(=O)CSc1ccc(Cl)cc1,–,inactive: -0.889%
CC(C)N=c1scc(-c2cccs2)n1/N=C/c1ccc(O)c(O)c1O,active: 16.4 µM,–
COc1cccc(-c2cc3nc(-c4ccccc4)cc(N4CCN(C(=O)c5ccoc5)CC4)n3n2)c1,"inconclusive [cytotoxic, single point]",–
CCc1cccc2c1Sc1ccccc1CC2N1CCNCC1 (configuration not stated),"inconclusive [cytotoxic, single point]",–
COc1ccccc1-c1cn[nH]c1-c1ccc(OCc2ccccc2F)cc1O,"inconclusive [cytotoxic, single point]",–
CC(=O)N1CCc2cc(S(=O)(=O)NCCC3=CCCCC3)ccc21,active: 20.6 µM,–
Nc1c(C(=O)Nc2cccc(F)c2)nnn1-c1ccc2c(c1)OCCO2,"inconclusive [cytotoxic, single point]",–
COC(=O)c1ccc(/C=N/Nc2nc3ccccc3[nH]2)cc1,"inconclusive [cytotoxic, single point]",–
CC(=O)Nc1cccc(-c2ccnc3c2CC(C)(C(=O)Nc2cccc(C(F)(F)F)c2)O3)c1 (configuration not stated),"inconclusive [cytotoxic, single point]",–
COc1ccccc1/C=C/C1(C(=O)NC2CCCC2)CC(=O)N1c1ccccc1 (configuration not stated),"inconclusive [cytotoxic, partial curve]",–
CN1CCN(C(=O)CC2(CC(=O)O)CCCC2)CC1,–,inactive: 0.052%
NCCCCCc1cn(CC(=O)NCCCCCCCCCCC(=O)N2CCNCC2)nn1,–,inactive: -0.961%
COc1ccc(C(=O)NC2CCCc3c2cnn3-c2cc(F)cc(F)c2)c(OC)c1OC (configuration not stated),"inconclusive [cytotoxic, single point]",–
COCCCNC(=O)/C(=C\c1cccn1C)NC(=O)c1cccs1,–,inconclusive: 33.1%
CCCc1c(Cc2cccc(F)c2)ncn1Cc1cccc(-c2ccccc2)c1,"inconclusive [cytotoxic, single point]",–
CC(C)C1C(=O)N(Cc2cn(CCC3OCCCO3)nn2)CCS(=O)(=O)N1Cc1ccc(-c2ccc(Cl)c(Cl)c2)cc1 (configuration not stated),"inconclusive [cytotoxic, single point]",–
CN1CCN(CC(=O)Nc2nc(-c3c[nH]c4ccccc34)cs2)CC1,active: 20.6 µM,–
CN(CCOc1ccccc1)C(=O)c1cc(S(=O)(=O)N2CCCCC2)ccc1Cl,–,inactive: -1.92%
Cc1cccc(OCCC(=O)Nc2ccc(C)c(S(=O)(=O)N3CCCCC3)c2)c1,–,inactive: -19.4%

Structure (SMILES),Potency,"activity, negative = toxicity"
Cc1cc(Cl)c(S(=O)(=O)Nc2ccon2)cc1OCC(=O)NC1CCCCC1,–,inactive: 7.1%
O=C1CC[C@@H](C(=O)O)N1,–,inactive: 5.23%
NS(=O)(=O)c1cccnc1Nc1cccc(C(F)(F)F)c1,–,inactive: -21.1%
COc1ccc(N2CCN(c3ncnc4scc(-c5ccccc5)c34)CC2)cc1,"inconclusive [cytotoxic, single point]",–
O=[N+]([O-])c1ccc(/C=C/c2ccc3cccc(O)c3n2)cc1,"inconclusive [cytotoxic, single point]",–
Oc1ccc(Cl)cc1/C=N/c1nccs1,"inconclusive [cytotoxic, single point]",–
CCOc1ccc2[nH]c(=O)c(CN(Cc3ccccc3OC)C(=O)c3ccccc3)cc2c1,"inconclusive [cytotoxic, single point]",–
O=C(Nc1ccc(Cl)cn1)C1C(c2ccccc2)C1(Cl)Cl (configuration not stated),"inconclusive [cytotoxic, single point]",–
NC(COCc1ccccc1)c1csc(Nc2nncc3ccccc23)n1 (configuration not stated),"inconclusive [cytotoxic, single point]",–
COc1ccc(-c2cc(NC=O)c3ncc(-c4cnn(C)c4)n3c2)cc1,"inconclusive [cytotoxic, single point]",–
COc1ccc(C2c3c(ncn(Cc4ccco4)c3=N)Oc3ccc4ccccc4c32)cc1 (configuration not stated),"inconclusive [cytotoxic, single point]",–
C#CC(C)(CC)NC(=O)c1cc2nc(C3CC3)cc(C(F)(F)F)n2n1 (configuration not stated),–,inactive: 0.903%
Oc1ccc(N2CCN(C(=S)NCCc3ccccc3)CC2)cc1,active: 3.66 µM,–
O=C1C(Cl)=C(N2CCC(C(=O)O)CC2)C(=O)c2ccccc21,"inconclusive [cytotoxic, single point]",–
CCOC(CNCc1cc(C)c2[nH]c3ccccc3c2c1C)OCC,"inconclusive [cytotoxic, single point]",–
COc1ccccc1NS(=O)(=O)c1ccc(-c2cnc(C3CC3)o2)cc1,active: 0.731 µM,–
O=C1Nc2ccccc2/C1=C\C(=O)c1ccccc1,"inconclusive [cytotoxic, single point]",–
CCOc1ccccc1OCC(=O)Nc1nnc(C)s1,–,inactive: -3.7%
Cc1ccc(CNC(=O)c2cn(C3CCCCC3)c(=O)c3c2c2ccccc2n3C)o1,"inconclusive [cytotoxic, single point]",–
Nc1ccc(C=Cc2ccc(N)cc2)cc1,"inconclusive [cytotoxic, single point]",–
O=C(COc1ccccc1Cl)NCCCNC(=O)c1cccnc1,"inconclusive [cytotoxic, single point]",–
Cn1c(-c2c(N)n(CCCc3ccccc3)c3nc4ccccc4nc23)nc2ccccc21,"inconclusive [cytotoxic, single point]",–
Cc1ccc(C)c(CC(=O)N2CCCCC2c2cc(C(=O)Nc3cccc(C#N)c3)no2)c1 (configuration not stated),–,inconclusive: -19.2% [cytotoxic]
CC(C)(C)n1nnnc1CN(Cc1cccnc1)Cc1ccccc1Cl,"inconclusive [cytotoxic, single point]",–
